Laboratory results reported in the supplement of paper PMC12217912.
The other results are listed elsewhere or left out. Sequences were assembled here from the parent chain. Values near 0.05 are background.

B1: TEV protease; numbered along this chain (parent)
chain: MGESLFKGPRDYNPISSSICHLTNESDGHTTSLYGIGFGPFIITNKHLFRRNNGTLVVQSLHGVFKVKDTTTLQQHLVDGRDMIIIRMPKDFPPFPQKLKFREPQREERICLVTTNFQTKSMSSMVSDTSCTFPSGDGIFWKHWIQTKDGQCGSPLVSTRDGFIVGIHSASNFTNTNNYFTSVPKNFMELLTNQEAQQWVSGWRLNADSVLWGGHKVFMVKPEEPFQPVKEATQL

Variants of: B1
Experiment: raw area under fraction-flipped curve 0-4 h after induction (AUC4h, not background-subtracted), DNA-recorder readout of cleavage of the substrate (dimensionless); higher = more cleavage of the substrate by the protease variant
Settings: temperature: 34 °C; time window: 0-4 h after rhamnose induction
Method: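 In vivo DNA recorder in E. coli TOP10(DE3) ΔrhaA at 34 °C. Each TEVp single-site mutant (parent TEVp 0) is paired with a single-site variant of the 7-mer TEVs (canonical ENLYFQ|S). The substrate sits between flexible linkers in a Bxb1-sfGFP-TEVs-SsrA fusion, so cleavage stabilises Bxb1 and speeds flipping of a recombination array, read by NGS. The value is the raw area under the fraction-flipped curve over 0-4 h after rhamnose induction (AUC4h), with ≥20 reads per time point. It is not background-subtracted; inactive controls average about 0.047.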
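Further: Bxb1 expression induced with 0.2% (w/v) L-rhamnose at OD600 near 0.5, cultures sampled hourly, flipped fraction per protease–substrate barcode pair counted by paired-end Illumina sequencing.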

| Variant | area with substrate ENLYFAS | area with substrate ENLYFCS | area with substrate ENLYFDS | area with substrate ENLYFFS | area with substrate ENLYFHS | area with substrate ENLYFIS | area with substrate ENLYFKS | area with substrate ENLYFMS | area with substrate ENLYFNS | area with substrate ENLYFPS | area with substrate ENLYFRS | area with substrate ENLYFTS | area with substrate ENLYFVS | area with substrate ENLYFWS | area with substrate ENLYFES | area with substrate ENLYFGS | area with substrate ENLYFLS | area with substrate ENLYFSS | area with substrate ENLYFYS |
| --- | --- | --- | --- | --- | --- | --- | --- | --- | --- | --- | --- | --- | --- | --- | --- | --- | --- | --- | --- |
| G39S | 0.0363 | 0.052 | 0.0472 | 0.0487 | 0.045 | 0.0456 | 0.0502 | 0.0451 | 0.0446 | 0.0234 | 0.0468 | 0.0327 | 0.0491 | 0.0437 | – | – | – | – | – |
| G39V | 0.033 | 0.0284 | 0.0506 | 0.0534 | 0.0474 | 0.0387 | 0.0409 | 0.0416 | 0.0382 | 0.0451 | 0.0474 | 0.0465 | 0.033 | 0.0449 | 0.0411 | 0.0406 | 0.0416 | 0.0436 | – |
| G39D | 0.0464 | 0.0619 | 0.0438 | 0.0522 | 0.0647 | 0.0385 | 0.0427 | 0.0365 | – | 0.0426 | 0.0327 | 0.0331 | – | 0.0489 | – | – | 0.0442 | 0.0473 | 0.0461 |
| F41N | 0.0534 | 0.0589 | 0.0705 | – | 0.072 | 0.049 | 0.0706 | 0.0396 | – | 0.0594 | 0.0565 | 0.0442 | 0.0643 | 0.0753 | 0.0612 | 0.0568 | 0.0602 | – | 0.0628 |
| L33F | 0.0715 | 0.067 | 0.0621 | 0.0534 | 0.0612 | 0.0548 | 0.0715 | 0.074 | 0.069 | 0.0587 | 0.09 | 0.0555 | 0.0616 | 0.0487 | 0.0653 | – | 0.0531 | – | – |
| L33V | 0.0576 | 0.0727 | 0.0626 | 0.0657 | 0.0655 | 0.0754 | 0.0632 | 0.0594 | 0.0662 | 0.0612 | 0.064 | – | – | – | 0.0719 | 0.0713 | – | 0.0547 | 0.0398 |
| L33Q | 0.0715 | 0.0641 | 0.0396 | 0.0703 | 0.0652 | 0.0612 | 0.0637 | 0.0655 | 0.0431 | 0.0514 | 0.0567 | 0.065 | 0.0524 | – | – | – | 0.0536 | 0.058 | – |
| K46E | 0.0583 | 0.0566 | – | 0.0721 | – | 0.0601 | – | 0.0526 | 0.0529 | 0.0599 | – | 0.0574 | 0.0678 | – | – | – | 0.0505 | 0.0503 | 0.0513 |
| K46F | 0.0627 | 0.0522 | – | 0.0655 | – | 0.0532 | – | 0.0336 | – | 0.0545 | 0.0773 | 0.0613 | 0.0593 | 0.062 | 0.0533 | – | 0.0509 | 0.0548 | 0.0524 |
| K46R | 0.0589 | – | – | 0.0707 | 0.0609 | 0.0478 | – | 0.0691 | 0.0587 | 0.0662 | 0.0581 | 0.0562 | – | 0.0571 | 0.0703 | – | 0.0523 | – | – |
| N45Q | 0.0639 | 0.0631 | 0.0613 | 0.0629 | – | 0.0572 | – | 0.0682 | 0.0551 | 0.0565 | 0.0622 | 0.0575 | – | 0.067 | – | 0.0681 | 0.0577 | 0.0566 | – |
| N45D | 0.0504 | 0.0577 | 0.0612 | 0.0654 | 0.0569 | 0.0473 | 0.0522 | 0.0557 | 0.0883 | 0.0596 | 0.0642 | 0.0618 | 0.067 | – | 0.0548 | 0.0383 | 0.0667 | 0.0574 | 0.0602 |
| I42D | 0.0364 | 0.0449 | – | 0.0403 | 0.0547 | 0.0467 | – | – | – | – | – | 0.0487 | 0.0504 | 0.0514 | 0.0476 | – | – | – | – |
| I42W | 0.0399 | 0.0514 | 0.0466 | 0.0644 | 0.0641 | 0.0453 | 0.0477 | 0.0478 | 0.0441 | 0.0422 | 0.0442 | – | 0.0433 | 0.0498 | 0.0491 | – | 0.0539 | 0.031 | 0.0374 |
| I42G | 0.0264 | 0.0276 | – | 0.0313 | 0.0458 | 0.0357 | 0.0239 | 0.0392 | – | 0.0367 | 0.0338 | 0.0537 | 0.0351 | 0.0372 | 0.0575 | 0.0543 | – | – | 0.0549 |
| I36N | 0.0451 | 0.0471 | – | 0.0505 | 0.0424 | 0.0468 | 0.0491 | 0.0538 | 0.0555 | 0.0439 | 0.052 | 0.0439 | – | – | 0.0562 | 0.046 | – | 0.0449 | 0.07 |
| I36C | 0.0615 | – | 0.0448 | 0.0592 | – | 0.0566 | 0.0806 | 0.0601 | 0.0924 | 0.0416 | 0.0319 | 0.0587 | 0.0516 | 0.0515 | 0.0603 | – | 0.059 | 0.046 | 0.0709 |
| H47R | 0.0671 | – | – | – | 0.0461 | 0.052 | 0.0659 | 0.045 | 0.0637 | 0.063 | 0.0489 | 0.0617 | – | 0.0479 | 0.0548 | – | – | 0.0447 | – |
| P40A | 0.0866 | 0.0599 | 0.0608 | 0.0637 | 0.0574 | 0.0496 | 0.065 | 0.0607 | 0.0618 | 0.0563 | 0.0436 | – | 0.0561 | – | 0.111 | 0.0565 | – | – | – |
| T44Q | 0.0271 | 0.0384 | – | 0.0511 | 0.0411 | 0.0348 | – | 0.047 | 0.0199 | 0.0493 | 0.0368 | – | 0.033 | 0.0411 | 0.0332 | 0.0552 | – | – | 0.0424 |
| G37R | 0.0437 | 0.0575 | 0.0538 | 0.0714 | 0.054 | 0.047 | 0.0452 | 0.0463 | 0.0456 | 0.0579 | 0.0599 | 0.0519 | 0.0696 | – | 0.0607 | 0.0504 | 0.0534 | 0.0759 | 0.062 |
| G37L | 0.0492 | 0.0686 | – | – | 0.0386 | 0.0523 | 0.0525 | 0.0459 | 0.0399 | 0.0674 | – | 0.0375 | 0.0486 | 0.0527 | – | – | – | 0.0672 | – |
| I43V | 0.0416 | 0.0548 | – | 0.082 | 0.0544 | 0.0503 | 0.0573 | – | 0.0697 | 0.0566 | 0.0509 | 0.0631 | 0.0593 | 0.0538 | – | 0.0493 | 0.0453 | 0.0738 | 0.0538 |
| F49H | 0.032 | – | – | 0.0602 | – | 0.0517 | 0.0546 | 0.0631 | – | 0.052 | 0.0796 | 0.0599 | – | – | 0.0545 | – | 0.0679 | 0.0725 | 0.0576 |
